# Measurements taken from article PMC6919601, “Identification of Plasmodium dipeptidyl aminopeptidase allosteric inhibitors by high throughput screening” (PLoS ONE, 2019).
# About 230 (0.21%) of roughly 110,000 compounds showed an effect of 50% or more. Some of the results follow.
# Molecular target: DPAP1 (Plasmodium falciparum, UniProt Q8IIJ9)
# Assay: primary screen, percent inhibition; read by cleavage of a fluorogenic dipeptide substrate; higher = more effect of the substance
# Design: species or system P. falciparum D10 trophozoite lysates; single well
# 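Further: 30 min substrate incubation versus DMSO and 10 µM JCP410 controls.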
# Chain of DPAP1 (Q8IIJ9 whole entry, looked up): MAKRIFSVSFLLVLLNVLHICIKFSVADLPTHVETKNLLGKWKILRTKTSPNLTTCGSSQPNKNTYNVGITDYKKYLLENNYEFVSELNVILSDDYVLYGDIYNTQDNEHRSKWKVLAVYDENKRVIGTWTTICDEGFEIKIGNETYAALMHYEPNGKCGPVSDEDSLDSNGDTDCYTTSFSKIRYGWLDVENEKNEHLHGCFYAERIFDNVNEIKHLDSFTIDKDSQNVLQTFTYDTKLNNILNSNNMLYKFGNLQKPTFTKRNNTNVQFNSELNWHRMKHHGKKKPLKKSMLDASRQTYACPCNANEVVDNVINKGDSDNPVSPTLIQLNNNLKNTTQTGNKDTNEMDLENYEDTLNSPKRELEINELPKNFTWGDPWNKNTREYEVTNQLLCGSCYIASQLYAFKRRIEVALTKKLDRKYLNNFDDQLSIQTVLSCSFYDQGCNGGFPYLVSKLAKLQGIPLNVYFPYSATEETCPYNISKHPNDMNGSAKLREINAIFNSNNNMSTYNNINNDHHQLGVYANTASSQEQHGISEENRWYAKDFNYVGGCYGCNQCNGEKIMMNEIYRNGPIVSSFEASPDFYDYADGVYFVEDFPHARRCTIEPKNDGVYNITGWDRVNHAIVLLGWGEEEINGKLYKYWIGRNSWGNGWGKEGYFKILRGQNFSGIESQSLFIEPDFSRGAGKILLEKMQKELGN
row,SMILES,% Inhibition @ 10 uM [%]
1,CCC(C)(C)NS(=O)(=O)c1ccc(CCN2C(=O)c3cccnc3C2=O)cc1,2.42
2,CCSC1=C(C#N)C(c2ccc(C)cc2)CC(=O)N1 (stereo not shown),0.673
3,CC1=C(C(=O)OCC2CCCCC2)C(c2ccccc2Cl)NC(=O)N1 (stereo not shown),2
4,C=CCN1CC(c2nc3ccccc3n2CC(C)C)CC1=O (stereo not shown),-3.49
5,NC(=O)C1(N2CCCCC2)CCN(C2CC(=O)N(CC(c3ccccc3)c3ccccc3)C2=O)CC1 (stereo not shown),-11.3
6,Cc1ccc(C)c(N(CC(=O)N2CCN(Cc3ccccc3)CC2)S(=O)(=O)c2ccccc2)c1,-1.43
7,CC(O)CSc1nc2c(c(=O)[nH]c(=O)n2C)n1C(C)C (stereo not shown),1.67
8,COC(=O)C1=CN(Cc2ccc(OC)cc2)C=C(C(=O)OC)C1c1cccc(OC)c1OC,0.219
9,COc1ccc2nc(NC(=O)c3cc(C)oc3C)sc2c1,-4.38
10,CC(C)C(=O)Nc1nc(-c2ccc(S(=O)(=O)N3CCOCC3)cc2)cs1,3.29
11,COc1cc(C=O)ccc1OC1=NS(=O)(=O)c2ccccc21,3.66
12,O/N=C1\CCCc2c1[nH]c1ccc(C3CCCCC3)cc21,-4.61
13,O=C(COc1ccc(Cl)cc1)NCc1nnc(SC/C=C/c2ccccc2)o1,-9.23
14,O=C(Cn1ncc2c3ccccc3nc-2c1O)N1CCC(N2CCCCC2)CC1,8.03
15,CC(C)c1ccc(/C=C(\C#N)c2nn(CCO)c(N)c2C#N)cc1,-1.03
16,CCOc1cc(/C=C2/NC(=S)NC2=O)cc(Br)c1O,1.26
17,O=C(c1ccccc1)N1CCN(C(=O)c2cccc(COc3ccc4c(c3)CCC4)c2)CC1,0.413
18,Oc1nc(S)nc(O)c1C/C=C/c1ccccc1,-0.906
19,CN(C)c1cc(NC(=O)CN2CCCCC2)c2ccccc2n1,-3.74
20,CC[C@H](NC(=O)[C@H](CC1CCCC1)NC1=NS(=O)(=O)c2ccccc21)C(=O)c1nc2ccccc2o1,1.61
21,CC(=O)N1N=C(c2ccccc2)CC1c1ccccc1[N+](=O)[O-] (stereo not shown),3.16
22,CCOc1ccc(/C=C/c2nc(C#N)c(NCCCn3ccnc3)o2)cc1,-0.808
23,CC(C)(C)NC(=O)c1ccc2c3c(onc13)-c1ccccc1C2=O,-2.41
24,C=CCSc1nc2c(c(=O)[nH]c(=O)n2C)n1CCC(C)C,4.09
25,CN1CCC(NCc2cccc(Br)c2)CC1,-5.11

row,SMILES,% Inhibition @ 10 uM [%]
1,CCC(C)NC(=O)c1cc(-c2ccccc2F)no1 (stereo not shown),-5.11
2,Cc1nn(CCCC(=O)NCCC2=CCCCC2)c(=O)c2cc3sccc3n12,3.4
3,Cc1cc(C)cc(N2C(=O)c3ccccc3C2=O)c1,-0.546
4,COc1ccc(CNC2C3CC4CC(C3)CC2C4)c(OC)c1C (stereo not shown),9.88
5,COC(=O)c1sc(NC(=O)c2ccccc2C)nc1C,-3.75
6,O=C(CN1C(=O)S/C(=C/c2ccccc2)C1=O)N1CCN(c2ccccc2)CC1,-1.44
7,O=C(O)Cc1cc(O)n(-c2nc3ccccc3s2)n1,2.7
8,O=C(Cn1ncc2c1-c1ccccc1OC2)N(Cc1ccco1)C1CCCCC1,-4.21
9,CCN1CCC(NC2CCCC(C)C2C)CC1 (stereo not shown),-3.27
10,Cc1nc(Nc2nc3ccccc3o2)nc(C)c1C(=O)Nc1ccc(F)cc1,-4.52
11,CCC(C)[C@H](NC(=O)OCc1ccccc1)C(=O)N[C@@H](CCc1ccccc1)C(=O)CNS(=O)(=O)c1ccc2oc3ccccc3c2c1 (stereo partly shown),-5.64
12,CCOC(=O)N1CCN(CC(O)COc2ccc(Cl)cc2C)CC1 (stereo not shown),-6.2
13,Cc1cc2ccccc2n1CCNC(=O)C(C)(C)C,-6.14
14,Cc1ccc(-n2nc(C)c(/C=N/c3ccc(C(=O)N4CCOCC4)cc3)c2O)cc1C,5.58
15,COC(=O)C1=C(N)n2c(s/c(=C\c3cccnc3)c2=O)=C(C(=O)OC)C1c1cccnc1 (stereo not shown),-1.84
16,COc1cccc(/C=C2\NC(=O)N(Cc3ccc(F)cc3)C2=O)c1OC(C)C,3.5
17,CCOc1cc(C(=O)C(=O)c2ccc(OC)c(OCC)c2)ccc1OC,6.08
18,O=C(Nc1nccs1)c1ccc(COc2ccc(Br)cc2)cc1,0.909
19,COc1ccccc1/C=C/C(=O)Nc1nc2nccc(-c3ccccc3)n2n1,-0.386
20,O=C(NCc1ccc2c(c1)OCO2)c1nnc(Cc2ccc(F)cc2)o1,1.3
21,Cc1ccc(NC(=O)CN(CCc2ccccc2)S(C)(=O)=O)cc1,-6.65
22,Cc1cc(-c2ccc(S(=O)(=O)NC3CCCc4ccccc43)cc2)on1 (stereo not shown),-8.28
23,CC(=O)N(C)c1ccc(NC(=O)c2cccs2)cc1,-5.41
24,CC(=O)Nc1ccc(NC(=O)COc2ccc(Br)cc2)cc1C,-7.1
25,O=C(Nc1ccc(-c2ccc(Cl)cc2)cc1)c1sc2ccccc2c1Cl,3.05

row,SMILES,% Inhibition @ 10 uM [%]
1,Cc1ccccc1CNCc1c(C(=O)O)c(C)n(Cc2cccc(Cl)c2)c1C,11.5
2,O=C(Nc1ccc(Cl)cc1)c1ccccc1Br,-3.71
3,COc1ccc(C2=NOC(C(=O)N3CCC4(CC3)OCCO4)C2)cc1 (stereo not shown),1.62
4,Cc1ccccc1CNC(=O)Cc1cccs1,1.68
5,CCOc1ccc(CCNC(=O)c2sc3nc(C)cc(COC)c3c2N)cc1OCC,2.5
6,COCCN1C(=O)c2ccccc2C(C(=O)Nc2cccnc2)C1c1cccs1 (stereo not shown),6.64
7,O=C(O)c1ccc(CN2CCCCCC2)cc1,-6.21
8,COc1ccc(Br)cc1CN1CCN(C(=O)c2cccnc2)CC1,-2.94
9,Cc1ccc(S(=O)(=O)N(CC(=O)NCC2CCCO2)c2ccc(Cl)cc2C)cc1 (stereo not shown),1.62
10,Cc1ccc(OCC(=O)N2CCCC2)c(Br)c1,3.83
11,COc1ccc(C(=O)CN2CCN(CCN3C(=O)c4cccc5cccc(c45)C3=O)CC2)cc1,29
12,CCOc1ccc(-c2cc(C(=O)NCCN(CC)CC)c3ccccc3n2)cc1,-0.519
13,O=C1CCCN2N=C(SCc3cccc(C(F)(F)F)c3)SC2=N1,8.84
14,CCOC(=O)N1CCN(C(=O)c2c(-c3ccccc3Cl)noc2C)CC1,-2.87
15,Cc1ccc(CN(C(=S)NCC(=O)N2CCCC2)C2CCCCC2)cc1,-4.06
16,Cc1c(C(=O)N(C)c2cccc(C(F)(F)F)c2)cnn1-c1ccccc1,1.17
17,COc1ccc(-c2cc(C(F)(F)F)nc(SCC(=O)Nc3cn(C)nc3C)n2)cc1OC,26.2
18,Cc1ccc(-c2nnc(S)n2/N=C/c2ccc(C(=O)O)cc2)cc1,7.26
19,CC(=O)c1cc2c(cc1NC(=O)COc1ccccc1C)OCO2,2.5
20,COc1ccc(NC(=O)c2nn(C)cc2Cl)c(OC)c1,-1.06
21,CCC(=O)N1CCN(c2ccccc2F)CC1,-3.45
22,O=C1CCCC2=C1C(c1ccc(C(F)(F)F)cc1)C1=C(O)c3ccccc3C1=N2 (stereo not shown),6.96
23,COc1cccc(S(=O)(=O)Nc2ccc(C(=O)N3CCN(C(=O)c4ccco4)CC3)cc2)c1,2.17
24,COc1cc(OC)c(OC)cc1CN1CCN(Cc2ccccc2Cl)CC1,12.7
25,COc1cc(OC)c(OC)cc1/C=N/n1c(C)nnc1C,-0.339

row,SMILES,% Inhibition @ 10 uM [%]
1,CC(NC(=O)c1cc2c(s1)CSC2)c1ccccc1 (stereo not shown),-3.1
2,COc1cc(OC)cc(-n2nnc(-c3nc(-c4ccc(C)cc4)no3)c2N)c1,1.4
3,Cc1ccc(S(=O)(=O)Nc2nc(C)cc(C)n2)cc1,-4.61
4,CC1=C(C(=O)Nc2ccc(Cl)cc2)C(c2ccc(O)cc2)NC(S)=N1 (stereo not shown),-5.28
5,COC(=O)C1=C(C)N(Cc2ccc(C)cc2)C(=O)/C1=C\c1ccc(OC)cc1OC,0.484
6,O=C(CCCOc1ccc(Cl)cc1)NC1CCCCC1,-7.3
7,Cc1ccc(OCC(=O)Nc2ccc(C(C)C)cc2)c(Br)c1,5.09
8,Cc1ccc(CCNC(=O)C23C[C@H]4C[C@@H](C2)CC(n2nnc(C)n2)(C4)C3)cc1,0.738
9,COc1ccc2[nH]c3c(O)ncnc3c2c1,-5.48
10,O=C(Nc1ccccc1F)c1onc2c1CCCC2,-0.884
11,O=C(CCCOc1ccccc1)Nc1ccccc1Cl,-3.24
12,COc1cc(/C=C2/SC(=O)N(CC(=O)Nc3cccc(C)c3)C2=O)ccc1O,-7.02
13,Cc1cccc(N2C(=O)NC(=O)/C(=C/NC34CN5CN(CN(C5)C3)C4)C2=O)c1,-2.54
14,Cc1sc2ncn(CC(=O)NCCCC(=O)N(C)CCc3ccccn3)c(=O)c2c1C,3.54
15,COc1ccccc1CCSc1nc(O)c2ccccc2n1,-0.865
16,Cc1ccccc1OCCCCCc1c(C)n[nH]c1C,-3.15
17,CCOc1ccc(Nc2nc(N)nc(CN3CCCCCC3)n2)cc1,-2.76
18,CCOC(=O)N1CCN(Cc2c(F)cccc2Cl)CC1,3.24
19,O=C1CC(c2ccc(O)cc2)C2=C(CC(c3ccccc3Cl)CC2=O)N1 (stereo not shown),-6.14
20,CN(CC(=O)NC1CCN(Cc2ccccc2)CC1)S(=O)(=O)c1cccc2nsnc12,0.317
21,CCOCCC/N=C/c1c(O)[nH]c2ccccc12,-0.169
22,C=CCNC(=O)CN(c1cccc(Cl)c1C)S(=O)(=O)c1ccccc1,5.99
23,Cc1cc(C(F)(F)F)nn1CC(=O)Nc1sc2c(c1C#N)CCCCC2,2.76
24,COc1cc(NS(=O)(=O)c2ccc(NC(=O)c3ccco3)cc2)nc(OC)n1,-1.53
25,O=c1ccc2ccc(OCc3ccc(F)cc3)cc2o1,4.57
